Source: PubChem BioAssay (NCI)
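Five concentrations, 48 hours, 96-well plates. GI50 marks 50% less growth. Definition used: TGI = concentration required for complete inhibition of growth.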

Test system: NCI-H322M lung
Assay: NCI-60 cell line screen, 48 h

Row | SMILES | GI50 | TGI
1 | COc1ccc(C(C)=C(c2ccc(OCCCN(C)C)cc2)c2ccc(OCCCN(C)C)cc2)cc1 | 2.6 µM | 5.2 µM
2 | CC(=O)NCC1=C(C)C=C2C(=O)[C@](C)(O)C3(CC3)C(C)=C21 | 0.0386 µM | 0.328 µM
3 | Cc1ccc(C(=O)C(c2c[nH]c3ccccc23)c2c[nH]c3ccccc23)cc1 | 14.6 µM | 28.2 µM
